From patent US20080044411A1 (Janssen / Centocor, published 2008)

Target: T1, rat GLP-1 receptor expressed in INS-1E cells (rat, UniProt P32301 22-463)
T1 sequence (looked up): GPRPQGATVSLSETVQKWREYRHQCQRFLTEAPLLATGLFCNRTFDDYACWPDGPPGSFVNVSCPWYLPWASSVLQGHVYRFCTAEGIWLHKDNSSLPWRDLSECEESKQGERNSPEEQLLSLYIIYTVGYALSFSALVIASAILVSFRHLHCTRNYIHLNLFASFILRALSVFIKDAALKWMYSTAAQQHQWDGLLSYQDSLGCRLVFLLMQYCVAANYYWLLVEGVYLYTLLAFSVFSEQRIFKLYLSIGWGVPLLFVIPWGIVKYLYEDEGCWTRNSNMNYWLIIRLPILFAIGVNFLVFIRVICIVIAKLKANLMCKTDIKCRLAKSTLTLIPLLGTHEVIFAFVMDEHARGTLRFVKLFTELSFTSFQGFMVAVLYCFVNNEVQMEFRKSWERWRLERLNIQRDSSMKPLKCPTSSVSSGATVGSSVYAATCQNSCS
Test: cell-based or functional assay

- LANCE cAMP assay in INS-1E cells, EC50: 8.7 nM
B1: GLP-1 MMB of SEQ ID NO:4 (Fc fusion)
chain: HSEGTFTSDVSSYLEGQAAKEFIEWLVKGRGGGSGGGSGTLVTNSS[human IgG4 Fc with S228P F234A L235A (EU numbers) omitted]
